Results: PubChem BioAssay AID1030 (National Center for Advancing Translational Sciences (NCATS), 2008)
The whole screen tested about 220,000 compounds, of which about 16,000 (7.3%) were called active. Inconclusive means that the source gave no clear call. Such entries were picked first, then a sample of the others. Calls come from the whole dose curve; as a rule, active = well fitted inhibition curve with a large enough effect (not every such curve was filed as active); inconclusive = small, poorly fitted or top-dose-only effect, or another doubt; inactive = no such curve, though single readings can be large or run the other way. No potency is given beside an inconclusive call; the fits are too rough.

Biological target: Aldehyde dehydrogenase 1A1 (Homo sapiens) (UniProt P00352)
Chain of UniProt P00352 (P00352 whole entry, looked up): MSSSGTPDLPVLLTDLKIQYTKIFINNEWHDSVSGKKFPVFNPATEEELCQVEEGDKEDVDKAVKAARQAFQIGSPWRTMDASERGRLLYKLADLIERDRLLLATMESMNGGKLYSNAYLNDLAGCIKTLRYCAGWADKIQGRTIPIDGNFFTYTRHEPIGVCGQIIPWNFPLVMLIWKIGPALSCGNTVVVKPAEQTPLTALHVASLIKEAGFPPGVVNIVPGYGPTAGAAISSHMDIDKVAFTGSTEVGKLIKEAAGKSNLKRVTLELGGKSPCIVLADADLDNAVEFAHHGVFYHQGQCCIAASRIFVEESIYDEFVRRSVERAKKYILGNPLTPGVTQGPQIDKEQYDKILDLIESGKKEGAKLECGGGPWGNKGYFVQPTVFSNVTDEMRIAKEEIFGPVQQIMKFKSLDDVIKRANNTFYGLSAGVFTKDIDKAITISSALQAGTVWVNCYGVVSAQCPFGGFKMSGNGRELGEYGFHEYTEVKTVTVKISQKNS
Experiment: qHTS Assay for Inhibitors of Aldehyde Dehydrogenase 1 (ALDH1A1);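 for activity, negative = inhibition: plate controls were no enzyme wells and a reference inhibitor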
Settings: Purified ALDH1A1, NADH fluorescence, propionaldehyde substrate; series mostly up to 75.3 µM; activity, negative = inhibition: at the top concentration
Potency is the fitted concentration of half-maximal effect; tags give direction and shape of the fitted curve.

| Structure (SMILES) | activity, negative = inhibition | Potency |
| --- | --- | --- |
| Cc1ccccc1CS(=O)(=O)c1ccc(C(=O)N2CCC(C)CC2)cc1[N+](=O)[O-] | inactive: -2.65% |  |
| Cc1cc(C(=O)COC(=O)c2ccco2)c(C)n1Cc1ccco1 |  | inconclusive [inhibitor, single point] |
| CCn1c(Cc2ccccc2)nnc1SCc1ccc([N+](=O)[O-])cc1 |  | inconclusive [inhibitor, single point] |
| COc1ccc(C2C(C#N)=C(N)OC3=C2C(=O)CC(C)(C)C3)c(OC)c1OC (centres undefined) |  | inconclusive [inhibitor, single point] |
| CCC(CC)C(=O)Nc1cc([N+](=O)[O-])ccc1Cl | inactive: 11.6% |  |
| CCCCOc1ccc(/C=C/C(=O)OCC(=O)NC(=O)NCC(C)C)cc1OCC |  | inconclusive [inhibitor, single point] |
| Nc1nonc1-c1nc2ccccc2n1CC(=O)O | inactive: -7.23% |  |
| Cc1nn(-c2ccccc2)c(C)c1NC(=O)COc1ccc(F)cc1Cl |  | inconclusive [inhibitor, partial curve] |
| O=C(OCc1nc2ccccc2[n+]([O-])c1C(=O)c1ccccc1)c1cccs1 |  | inconclusive [inhibitor, single point] |
| Cc1nnc2n(Cc3ccccc3)c(=O)c3c4c(sc3n12)CN(Cc1ccccc1)CC4 |  | inconclusive [inhibitor, single point] |
| Cc1ccc(-c2nnc(-n3nnc4ccccc43)c3ccccc23)cc1 |  | inconclusive [inhibitor, full curve] |
| O=C(CN1CCOCC1)N1CCN(c2nnc(-c3ccccc3)c3ccccc23)CC1 |  | active: 12.6 µM |
| O=C(COc1ccccc1)Nc1ccccc1Cl | inactive: 1.5% |  |
| O=C(/C=C(\c1ccccc1)n1cncn1)c1ccccc1 |  | inconclusive [inhibitor, full curve] |
| S=C(NCc1ccco1)Nc1ccc(Oc2ccc(Cl)cc2)cc1 |  | inconclusive [inhibitor, single point] |
| NC(=O)c1cnn2c(C(F)(F)F)cc(-c3ccc(F)cc3)nc12 |  | inconclusive [inhibitor, single point] |
| COc1ccc(C(=O)/C=C/C(=O)N(CC(=O)NC2CCCCC2)Cc2ccc(F)cc2)c(O)c1 |  | inconclusive [inhibitor, partial curve] |
| Cc1ccc2occ(/C=N/NC(N)=S)c(=O)c2c1 |  | inconclusive [inhibitor, partial curve, poor fit] |
| Cc1ccc(NC2=C(Cl)C(=O)OC2OC(=O)c2ccco2)cc1 (centres undefined) | inactive: 4.96% |  |
| COc1cc2c(=O)n(Cc3ccccc3)c(=O)n(CC(=O)NCCc3ccccc3)c2cc1OC |  | inconclusive [inhibitor, full curve] |
| CCCC[C@@H]1CNC(=S)N1CCCC | inactive: 1.22% |  |
| CCOC(CNC(=O)c1ccc2nc(N3CCC(C)CC3)sc2c1)OCC |  | active: 14.1 µM |
| O=C(c1c[nH]c(C(=O)N2CCN(Cc3ccccc3)CC2)c1)C1CCCCC1 |  | active: 7.94 µM |
| CCOC(=O)C1=C(c2ccccc2)ON(C)C1c1ccccc1 (centres undefined) | inactive: 1.39% |  |
| CCNC(=S)Nc1ccc(N(c2ccccc2)C(C)C)cc1 |  | inconclusive [inhibitor, single point] |

| Structure (SMILES) | activity, negative = inhibition | Potency |
| --- | --- | --- |
| CC(C)CNC(=S)NC(=O)c1ccc(Cl)cc1Cl |  | active: 22.4 µM |
| COc1cc(NS(C)(=O)=O)c(OC)cc1NC(=O)c1cccc(F)c1 |  | inconclusive [inhibitor, partial curve] |
| CN(C)c1ncc2nc(-c3cc(F)cc(F)c3)c(=O)n(Cc3cccs3)c2n1 |  | inconclusive [inhibitor, partial curve] |
| COc1cc(OC)c2c(-c3cccc(-c4ccc(C(C)=O)cc4)c3)cc(=O)oc2c1 |  | inconclusive [inhibitor, partial curve] |
| Oc1cc2c(cc1O)C(c1ccccc1)CNCC2 (centres undefined) |  | inconclusive [inhibitor, single point] |
| COc1ccc2[nH]cc(CCNc3nc(-c4ccccc4CN(C)C)nc4ccccc34)c2c1 |  | inconclusive [inhibitor, single point] |
| CC1CN(S(=O)(=O)c2cccc(-c3csc(-c4ccccc4)n3)c2)CC(C)O1 (centres undefined) |  | inconclusive [inhibitor, single point] |
| CCCS(=O)(=O)c1cn2cccc(N)c2c1S(=O)(=O)CCC |  | inconclusive [inhibitor, single point] |
| Cc1cc(C)nc(NS(=O)(=O)c2ccc(NC(=O)c3ccc4c(c3)OCO4)cc2)n1 |  | active: 25.1 µM |
| O=C(Nc1cc(C(F)(F)F)ccc1N1CCCCC1)c1cccc([N+](=O)[O-])c1 | inactive: 2.35% |  |
| COc1ccc(N2C(=O)CC(Sc3nc4ccccc4s3)C2=O)cc1OC (centres undefined) |  | active: 3.55 µM |
| Cc1ccc(C(=O)OCC(=O)NC2CCCCC2)s1 | inactive: 5.75% |  |
| COc1ccc(C(=O)NCc2csc(-c3cccs3)n2)cc1 |  | inconclusive [inhibitor, partial curve] |
| CCNS(=O)(=O)c1ccc(C)c(-n2cnnn2)c1C |  | inconclusive [inhibitor, partial curve] |
| Cc1cc(C(=O)COc2ccc(-c3nnco3)cc2)c(C)n1Cc1ccccc1 |  | inconclusive [inhibitor, single point] |
| COc1ccc(NC(=O)CC2C(=O)N(Cc3ccccc3)C(=S)N2CCN2CCOCC2)cc1 (centres undefined) |  | inconclusive [inhibitor, single point] |
| COc1ccc(-c2nnc(NC(=O)C3CC3)o2)cc1 | inactive: 5.36% |  |
| O=C(N/N=C/C(Cl)=C/c1ccc([N+](=O)[O-])cc1)C(=O)Nc1ccccc1C(=O)O |  | inconclusive [inhibitor, single point] |
| Cc1noc(C)c1-c1cc(NC2CCNCC2)ncn1 |  | inconclusive [inhibitor, single point] |
| O=C(/C=C/c1ccc(-c2ccccc2)o1)c1ccccc1 | inactive: 11.5% |  |
| Cc1ccc(S(=O)(=O)N2CCOCC2)cc1NC(=O)CNC1CCCC1 | inactive: -3.53% |  |
| O=C(Nc1ccc(S(=O)(=O)NCC2CCCO2)cc1)c1cnccn1 (centres undefined) | inactive: 2.16% |  |
| CCOCC(=O)Nc1ccc(S(=O)(=O)NCCc2ccccc2)cc1 |  | active: 10 µM |
| CCNc1ncc2nc(-c3cn(C)c4ccccc34)c(=O)n(CCC#N)c2n1 |  | inconclusive [inhibitor, partial curve] |
| COc1ccc(-n2c(C)nc3c(cnn3-c3ccc(Cl)cc3)c2=O)cc1 | inactive: 5.92% |  |

| Structure (SMILES) | activity, negative = inhibition | Potency |
| --- | --- | --- |
| c1ccc(-c2ncc3ccccn23)cc1 |  | inconclusive [inhibitor, partial curve] |
| O=C(NCc1cccs1)C1CCC(CNS(=O)(=O)c2cccs2)CC1 (centres undefined) |  | active: 14.1 µM |
| Clc1ccc(Nc2nc(C3CC3)cs2)cc1 |  | inconclusive [inhibitor, single point] |
| Cc1ccc(NC(=O)C(=O)NCc2ccc(/C=C(/C#N)C(=O)NCc3cccnc3)o2)cc1 |  | inconclusive [inhibitor, single point] |
| Fc1cccc(F)c1/C=N/N1CCOCC1 | inactive: -4.24% |  |
| COc1ccc(C2CC(c3ccc(Br)cc3)=NN2C(=O)CSC2=NCCS2)cc1 (centres undefined) |  | inconclusive [inhibitor, partial curve] |
| CCN(CC)C(=O)CSc1nc2c(sc(=S)n2CC)c(=O)n1-c1ccccc1 |  | inconclusive [inhibitor, partial curve] |
| Cc1ccc(NC(=O)COC(=O)c2cc(Cl)cc(Cl)c2)c(Br)c1 | inactive: 15.3% |  |
| CC(=O)C1C(=O)C=C(c2ccco2)CC1c1ccccc1 (centres undefined) |  | active: 25.1 µM |
| O=C1NC2(CCCCCC2)N=C1c1ccc(Br)cc1 | inactive: 11.2% |  |
| Cc1cccc(C(=O)OCC(=O)Nc2ccc(N3CCCCC3)cc2)c1O | inactive: 10.9% |  |
| CCOc1cc(-c2c(C#N)c(N)nc3c2CCCC3)ccc1O |  | inconclusive [inhibitor, single point] |
| C#CCSc1nc2[nH]ncc2c(=O)[nH]1 |  | inconclusive [inhibitor, single point] |
| O=C(O)c1nn(-c2ccccc2-c2n[nH]c(=O)[nH]c2=O)c(=O)[nH]c1=O | inactive: 5.88% [at 13.5 µM] |  |
| CCN(CC)C(=O)CN1C(=O)C2CC=C(Cl)CC2C1=O (centres undefined) | inactive: 6.81% |  |
| Cc1cccc(C)c1NC(=O)COc1ccc2c(C)c(Cc3ccccc3)c(=O)oc2c1C |  | inconclusive [inhibitor, full curve, poor fit] |
| O=C(OCC#CCSc1nnc(-c2cccc3ccccc23)o1)c1cccs1 |  | inconclusive [inhibitor, single point] |
| CC(C)CN(C(=O)CN1CCCCCC1)c1c(N)n(CC(C)C)c(=O)[nH]c1=O |  | inconclusive [inhibitor, single point] |
| Cc1ccc(C2CC2c2n[nH]c(=S)n2-c2cccc(Cl)c2)cc1 (centres undefined) | inactive: -2.42% |  |
| O=S(=O)(Nc1ccc(O)c(Sc2nc3ccccc3s2)c1)c1ccc(Cl)cc1 |  | inconclusive [inhibitor, single point] |
| CC(=O)c1cc(F)c(N2CCN(C(=O)c3ccco3)CC2)cc1C |  | inconclusive [inhibitor, single point] |
| Fc1ccc(C2CC(c3ccco3)=NN2c2ccccc2)cc1 (centres undefined) | inactive: 7.57% |  |
| Cc1cc(C)c2c(N)c(C(=O)c3ccccc3)oc2n1 |  | inconclusive [inhibitor, partial curve] |
| O=c1c2ccccc2c(-c2ccc(O)cc2)nn1-c1cccc(C(F)(F)F)c1 | inactive: 2.9% |  |
